# Laboratory results: the supplement of paper PMC12217912
# The other results are listed elsewhere or left out. The full chains were built here from the parent and the listed change. Values near 0.05 are background.
# B1: TEV protease; numbered along this chain (parent)
# chain: MGESLFKGPRDYNPISSSICHLTNESDGHTTSLYGIGFGPFIITNKHLFRRNNGTLVVQSLHGVFKVKDTTTLQQHLVDGRDMIIIRMPKDFPPFPQKLKFREPQREERICLVTTNFQTKSMSSMVSDTSCTFPSGDGIFWKHWIQTKDGQCGSPLVSTRDGFIVGIHSASNFTNTNNYFTSVPKNFMELLTNQEAQQWVSGWRLNADSVLWGGHKVFMVKPEEPFQPVKEATQL
# Variants of: B1
# Test: raw area under fraction-flipped curve 0-4 h after induction (AUC4h, not background-subtracted), DNA-recorder readout of cleavage of the substrate (dimensionless); higher = more cleavage of the substrate by the protease variant
# Conditions: temperature: 34 °C; time window: 0-4 h after rhamnose induction
# Procedure: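 In vivo DNA recorder in E. coli TOP10(DE3) ΔrhaA at 34 °C. Each TEVp single-site mutant (parent TEVp 0) is paired with a single-site variant of the 7-mer TEVs (canonical ENLYFQ|S). The substrate sits between flexible linkers in a Bxb1-sfGFP-TEVs-SsrA fusion, so cleavage stabilises Bxb1 and speeds flipping of a recombination array, read by NGS. The value is the raw area under the fraction-flipped curve over 0-4 h after rhamnose induction (AUC4h), with ≥20 reads per time point. It is not background-subtracted; inactive controls average about 0.047.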
# 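Also: Bxb1 expression induced with 0.2% (w/v) L-rhamnose at OD600 near 0.5, cultures sampled hourly, flipped fraction per protease–substrate barcode pair counted by paired-end Illumina sequencing.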
Variant,area with substrate ENLYFAS,area with substrate ENLYFCS,area with substrate ENLYFES,area with substrate ENLYFFS,area with substrate ENLYFGS,area with substrate ENLYFIS,area with substrate ENLYFKS,area with substrate ENLYFPS,area with substrate ENLYFSS,area with substrate ENLYFTS,area with substrate ENLYFWS,area with substrate ENLYFYS,area with substrate ENLYFDS,area with substrate ENLYFHS,area with substrate ENLYFLS,area with substrate ENLYFMS,area with substrate ENLYFNS,area with substrate ENLYFRS,area with substrate ENLYFVS
F95Y,0.0599,0.041,0.0727,0.0566,0.0545,0.0489,0.0443,0.0515,0.0671,0.0535,0.0589,0.0424,,,,,,,
R106Q,0.0542,0.0557,0.0646,,,0.0553,0.0604,0.0615,0.0739,,0.0566,0.0603,0.0476,0.0442,0.0669,0.0577,0.0691,0.0694,0.0397
G63W,0.0454,0.0531,0.0624,0.0563,0.0418,0.0448,0.0616,0.092,,0.0543,0.0548,0.0498,0.0444,0.0539,0.062,0.0666,0.0535,0.0602,
L61C,0.0561,0.0585,0.0647,0.0664,0.0596,0.0608,0.0709,0.0765,0.0734,0.0544,0.0425,0.0606,0.0637,0.0536,0.0512,0.0649,0.04,0.0589,0.0611
I86N,0.0342,,,0.0437,,0.0494,,0.0469,,,0.0402,,,,,,0.0495,,
K68R,0.0602,,0.0572,0.0714,,,,0.0574,0.0504,,0.0582,,0.0618,,,0.0592,,0.0555,0.0568
I85L,0.0503,,,,,0.0607,0.0522,0.0559,,,0.0446,0.0858,,0.0682,0.0633,0.0682,0.0737,0.0519,
Q74S,0.0571,0.0625,,0.0564,,0.039,0.0708,0.0727,,,,0.0562,,,0.0439,0.0742,0.0655,,0.0633
V64M,0.055,0.0584,0.0625,0.0861,0.0681,0.0536,0.0581,0.0623,,0.0543,,0.0537,0.0653,,,0.0789,0.0775,0.0668,0.0635
V64A,0.0563,,,0.0655,0.0852,,0.0679,0.0596,,0.0756,,0.0542,0.0772,,,0.0734,0.0763,0.0656,0.064
V64H,0.0639,0.064,,0.0688,,,,0.0483,,,0.0655,,,,,,,,
P96E,0.092,,0.0645,,,0.0678,,0.0564,0.0285,0.0528,0.0513,0.0557,0.0506,,,0.0687,,0.0642,
P96R,0.0701,,0.0643,,,,,0.0637,0.0886,,0.051,,,0.0622,0.0653,,0.069,0.049,
P96A,0.0786,0.0538,,0.0691,0.0542,0.0442,0.0592,0.053,0.0465,0.0685,,,0.0524,,,0.0722,,,
P96H,0.0573,0.0672,0.074,,0.0564,0.058,0.0629,0.0543,,0.0491,,0.0562,0.0804,0.0678,,0.0664,0.0643,0.059,0.0394
